The other results are listed elsewhere or left out.

T1: UNK ZnF1-6 (called full-length) (human, UniProt Q9C0B0 30-357)
T1 sequence: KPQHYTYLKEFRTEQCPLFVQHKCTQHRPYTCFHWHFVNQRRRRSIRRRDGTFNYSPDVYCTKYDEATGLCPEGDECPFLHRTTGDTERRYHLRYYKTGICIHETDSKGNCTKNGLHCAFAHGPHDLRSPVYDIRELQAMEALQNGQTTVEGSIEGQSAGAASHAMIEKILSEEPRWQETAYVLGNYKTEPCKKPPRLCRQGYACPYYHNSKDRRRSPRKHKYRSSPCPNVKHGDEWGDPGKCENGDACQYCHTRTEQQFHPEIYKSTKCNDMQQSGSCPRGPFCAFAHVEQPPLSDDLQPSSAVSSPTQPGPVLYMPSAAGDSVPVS

B1: ENSG00000107863:be:win_3351|CDS|ENSG00000107863|bound_else_gene|NA|bound_elsewhere_windowed (ssRNA)
RNA: GGGAGUUCUACAGUCCGACGAUCAAAAGACAAAGGCACAUGGAGAAAAGGCAUUCCAAGUAUCAUGAGAAAGACAUUUGAGAAAAAGCCAACUGCUACAGGAACUUUCGGCGUCCGACUAGAUGACUGCCCACCAGCUCAUACCAACAGAGGAUUGAGCAUCA
B2: chr14:67336187:67336738:-|three_prime_utr|ENSG00000100554|control|control|control (ssRNA)
RNA: GGGAGUUCUACAGUCCGACGAUCGUCAAGUAUGAUUUGAUUUAAUUUGAUCUUUAUAUUUUAAGAAUUACGUACUGCCUUUCUAGGAGGCAAAAAUUAGUUUGAAGUAGGGAUCCAGAUUAGUGGUUUUCCACAUGUAGGUAACAACAGAGGAUUGAGCAUCA
B3: chr1:116393555:116393656:+|CDS|ENSG00000163399|msi1|FALSE|unique (ssRNA)
RNA: GGGAGUUCUACAGUCCGACGAUCCCCCAACACAUCGGAGCCCCAACACCUGUUGGUGAUGAAGGGCGCCCCAGAAAGGAUCCUAGACCGUUGCAGCUCUAUCCUCCUCCACGGCAAGGAGCAGCCCCUGGAUGAGGAGCUGAACAACAGAGGAUUGAGCAUCA
B4: ENSG00000112365:stop:overlap|stop_codon|ENSG00000112365|stop_codon|NA|stop_codon (ssRNA)
RNA: GGGAGUUCUACAGUCCGACGAUCUCUACACACUGGCAAGAAGCCUUUCUCCUGCCCUGAGUGUAACUUACAGUUUGCUCGCUUAGACAACUUGAAGGCUCACUUGAAAAUUCAUAGCAAGGAGAAGCAUGCUUCAGAUGCCAGCAACAGAGGAUUGAGCAUCA
B5: chr12:76028505:76028606:-|3pUTR|ENSG00000139289|msi1|FALSE|unique (ssRNA)
RNA: GGGAGUUCUACAGUCCGACGAUCAAGUCUUGGUCAGUAUUUUUCCAGCAUUUAAAUUGAAACGGUCAGUAUUAGACCACUGCUAGGUUAUGUAGUCAAGAAAUAAAAAUAGAAUUACAUGCUACAGAUGUCUUUAUUCUCCUUCAACAGAGGAUUGAGCAUCA
B6: chr2:240467872:240467977:+|3pUTR|ENSG00000063660|msi1|total|mutant (ssRNA)
RNA: GGGAGUUCUACAGUCCGACGAUCCUCUGGCACAGUGAUGCCGGGCGCCAGGACAGCAGCACUCCCGCUGCACACAGACGGCCCCGGGGUGGCGCUCAGACCCCACCCUACGCUCAUCUCUGGAAGGGGCAGCCCUGAGUGGUCCAACAGAGGAUUGAGCAUCA
B7: chr15:30400561:30403739:-|three_prime_utr|ENSG00000186399|control|control|control (ssRNA)
RNA: GGGAGUUCUACAGUCCGACGAUCAUAAGAAACCAAGUUAUGGGGUUAAUCUCCUACACAAUUCAUUUACUUCCUUUGAAUGUUAGACUCACUCAUGAUUAUUUGUGUUUCUAAUUUAUAGUUUAAGUUUAUUUGUAAAAAGUUCAACAGAGGAUUGAGCAUCA
B8: chr12:64147824:64147925:+|3pUTR|ENSG00000196935|unk|total|mutant (ssRNA)
RNA: GGGAGUUCUACAGUCCGACGAUCCAUCUCUGUGGUGUCUUUGUUCCUUUCCUUUCAUUCAUCACUACUUUCUCCUUGACAGCCCGCUUGCAUUAAAUAAUGUGAAACUUUUACCUUUAAAAUAUUUUUUUAUCUCACUUUCAUCAACAGAGGAUUGAGCAUCA
B9: chr11:2397021:2397122:+|3pUTR|ENSG00000110651|msi1|FALSE|unique (ssRNA)
RNA: GGGAGUUCUACAGUCCGACGAUCUUGGGGUUUUGUUUUUGUUCUGAACUUUCCUGUUACCUUUUCAGGGCUGACGUCACAUGUAGGUGGCGUGUAUGAGUGGAGACGGGCCUGGGUCUUGGGGACUGGAGGGCAGGGGUCCUUCAACAGAGGAUUGAGCAUCA
B10: chr7:107760707:107760808:+|3pUTR|ENSG00000105879|unk|FALSE|unique (ssRNA)
RNA: GGGAGUUCUACAGUCCGACGAUCAAACAUGAAAUAUGUAGUAUGCAGAUAUCAUUUAUUAGAUAGUUUGUAGUGUAUACAUUUAGAACAUACUUCUUUUGACAAAGGGUGAUCUGAUUGCUAAUUUACCAUUUUAUUCUGUCACAACAGAGGAUUGAGCAUCA
B11: chr6:132328510:132328611:-|CDS|ENSG00000079931|msi1|total|mutant (ssRNA)
RNA: GGGAGUUCUACAGUCCGACGAUCUUGUGGGAUGUUGCCGGGUGGUCUUAUUUAUUGUGUCCUCCCUCUCAUUUAUGUUCGUGCCGGUUGAGCCAGUGAUACAGAGAGGCCAUGAGAGUCUGGUGCACCACAUCCUGCUCUAUCCAACAGAGGAUUGAGCAUCA
B12: ENSG00000227500:stop:overlap|stop_codon|ENSG00000227500|stop_codon|NA|stop_codon (ssRNA)
RNA: GGGAGUUCUACAGUCCGACGAUCGCAACAGCCUGCCCGAGUACCCCACUGUGCCCAGCUACCCGGGCAGUGGCCAGUGGCCUUAGAGGGAGCCUGCCCUGCCCCCACCGCCCACCACCUCCUCCCCUUCAUUCCUGCUGCUACCAACAGAGGAUUGAGCAUCA
B13: ENSG00000198589:be:win_7351|CDS|ENSG00000198589|bound_else_gene|NA|bound_elsewhere_windowed (ssRNA)
RNA: GGGAGUUCUACAGUCCGACGAUCGUGUUGAGAGAGGCUGUUGAAGCUCAAAUCCGAAGUUUUGGACAGACUCCUUCUCAACUACUCAUAGAGCCCCAUCCUCCCAGAGGUUCUGCCAUGCAAGUGAGUCCAUUGAUGUUCACACAACAGAGGAUUGAGCAUCA
B14: chr4:68310386:68314098:-|three_prime_utr|ENSG00000083896|control|control|control (ssRNA)
RNA: GGGAGUUCUACAGUCCGACGAUCGCACUGAUUGUUUAAAGAUACAAAAAAUCUUGUAUUUUUUUUUUGUGUGUGUUUACAAGUAGUAAAUUUAUUUUCAGCUGUCUGCCUAUGAAGUUCAUUGUGUAGAAGGAUUUAUUAUGACAACAGAGGAUUGAGCAUCA

The assay addresses T1, UNK ZnF1-6 (called full-length). Briefly: nsRBNS (natural sequence RNA bind-n-seq); RBNS binding buffer (assumed for nsRBNS): 25 mM Tris pH 7.5, 150 mM KCl, 3 mM MgCl2, 0.01% Triton X-100, 500 ug/ml BSA, 20 U/ml SUPERase-In, 4 C; UNK is unkempt and MSI1 is Musashi-1; names of the RNAs are library labels; protein concentration not given here; high values mean tight binding.
The molecule B1 yielded a binding signal of 0.507 enrichment R.
As to B2, the binding signal is 2.22 enrichment R.
Turning to B3, the binding signal stood at 0.574 enrichment R.
In the case of B4, the binding signal is 0.948 enrichment R.
In the case of B5, the binding signal is 0.83 enrichment R.
Consider B6, for which the binding signal stood at 0.66 enrichment R.
In turn, B7 showed a binding signal of 3.04 enrichment R.
B8 yielded a binding signal of 2.22 enrichment R.
Then B9, with 2.11 enrichment R; and B10, with 1.11 enrichment R; and B11, with 0.689 enrichment R.
In turn, B12 had a binding signal of 0.868 enrichment R.
For B13, the binding signal is 0.567 enrichment R.
Then B14, with 0.948 enrichment R.
